# Laboratory results reported in paper PMC6648895.
# Chains of the proteins cited; added tags and fusions are not shown.
# UniProt P04650: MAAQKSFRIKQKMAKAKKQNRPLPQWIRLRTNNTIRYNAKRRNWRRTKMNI
# UniProt P0CX27: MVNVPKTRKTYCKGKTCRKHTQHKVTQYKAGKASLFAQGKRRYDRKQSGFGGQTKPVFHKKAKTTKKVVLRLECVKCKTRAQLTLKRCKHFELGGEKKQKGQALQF
# No constants are given. Whether binding was seen depends on the method and setting. Some binding calls cover weakened binding; strength is not graded here. Where a sequence is shown, tags or fusion partners need not be part of it.
# T1: Rps6 loop region plus C-terminal domain (residues 117–236), Gal4 DNA-binding domain fusion (S. cerevisiae) (UniProt P0CX37)
# T1 sequence: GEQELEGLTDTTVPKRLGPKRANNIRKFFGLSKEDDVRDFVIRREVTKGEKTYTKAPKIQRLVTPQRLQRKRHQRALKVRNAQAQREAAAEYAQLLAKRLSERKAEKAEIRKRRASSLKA
# T2: Rps3, Gal4 domain fusion (S. cerevisiae) (UniProt P05750)
# T2 sequence: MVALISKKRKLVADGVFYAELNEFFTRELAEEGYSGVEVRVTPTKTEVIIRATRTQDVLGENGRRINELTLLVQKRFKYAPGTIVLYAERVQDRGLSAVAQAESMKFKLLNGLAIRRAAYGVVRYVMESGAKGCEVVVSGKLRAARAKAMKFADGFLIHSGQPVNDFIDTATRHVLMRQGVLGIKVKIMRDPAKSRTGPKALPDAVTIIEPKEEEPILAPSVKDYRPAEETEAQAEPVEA
# T3: Rps6, Gal4 DNA-binding domain fusion (full-length) (S. cerevisiae) (UniProt P0CX37)
# T3 sequence: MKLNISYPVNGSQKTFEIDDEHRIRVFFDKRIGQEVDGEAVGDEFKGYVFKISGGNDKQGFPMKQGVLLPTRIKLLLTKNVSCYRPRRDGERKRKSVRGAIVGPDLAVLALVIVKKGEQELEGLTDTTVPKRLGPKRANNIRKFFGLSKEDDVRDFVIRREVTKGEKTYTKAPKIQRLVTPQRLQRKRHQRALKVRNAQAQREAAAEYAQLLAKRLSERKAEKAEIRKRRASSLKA
# T4: Rps6 N-terminal domain plus loop (residues 1–181), Gal4 DNA-binding domain fusion (S. cerevisiae) (UniProt P0CX37)
# T4 sequence: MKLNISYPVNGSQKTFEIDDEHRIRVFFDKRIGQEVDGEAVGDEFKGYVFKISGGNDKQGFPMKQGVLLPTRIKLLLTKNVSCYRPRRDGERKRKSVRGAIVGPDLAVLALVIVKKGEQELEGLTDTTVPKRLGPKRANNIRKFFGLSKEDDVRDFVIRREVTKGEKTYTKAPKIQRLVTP
# T5: Rps6 C-terminal domain (residues 176–236), Gal4 DNA-binding domain fusion (S. cerevisiae) (UniProt P0CX37)
# T5 sequence: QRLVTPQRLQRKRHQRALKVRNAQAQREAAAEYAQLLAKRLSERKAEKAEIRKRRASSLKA
# T6: Rpl41, Gal4 domain fusion (S. cerevisiae) (UniProt P0CX86)
# T6 sequence: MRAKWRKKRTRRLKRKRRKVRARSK
# T7: Rpl18, Gal4 domain fusion (S. cerevisiae) (UniProt P0CX49)
# T7 sequence: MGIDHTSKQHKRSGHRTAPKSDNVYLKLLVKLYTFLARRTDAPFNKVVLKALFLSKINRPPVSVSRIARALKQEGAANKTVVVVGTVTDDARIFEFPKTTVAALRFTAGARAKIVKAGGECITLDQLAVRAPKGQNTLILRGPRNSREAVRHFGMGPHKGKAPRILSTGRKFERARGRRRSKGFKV
# How the values were obtained:
# [1] = molecular target: Rpl39, Gal4 DNA-binding domain fusion (S. cerevisiae) (UniProt P04650); experiment: two-hybrid; competition: PJ69-4A carrying high-copy URA3 plasmid pADH195-RPS6A or empty YEplac195, co-transformed with bait and prey plasmids; media additionally lacking uracil
# [2] = molecular target: Rpl42, Gal4 DNA-binding domain fusion (S. cerevisiae) (UniProt P0CX27); experiment: as above
# [3] = molecular target: T1, Rps6 loop region plus C-terminal domain (residues 117–236), Gal4 DNA-binding domain fusion (S. cerevisiae); experiment: two-hybrid; reporter strain PJ69-4A; bait fused to Gal4 DNA-binding domain (c-Myc), prey fused to Gal4 activation domain (HA); HIS3 reporter for weak, ADE2 reporter for strong interactions; plates 30°C, 3 days
# [4] = molecular target: T2, Rps3, Gal4 domain fusion (S. cerevisiae); experiment: as above
# [5] = molecular target: T3, Rps6, Gal4 DNA-binding domain fusion (full-length) (S. cerevisiae); experiment: as above
# [6] = molecular target: T4, Rps6 N-terminal domain plus loop (residues 1–181), Gal4 DNA-binding domain fusion (S. cerevisiae); experiment: as above
# [7] = molecular target: T5, Rps6 C-terminal domain (residues 176–236), Gal4 DNA-binding domain fusion (S. cerevisiae); experiment: as above
# [8] = molecular target: Rpl39, Gal4 DNA-binding domain fusion (S. cerevisiae) (UniProt P04650); experiment: as above
# [9] = molecular target: T6, Rpl41, Gal4 domain fusion (S. cerevisiae); experiment: as above
# [10] = molecular target: T7, Rpl18, Gal4 domain fusion (S. cerevisiae); experiment: as above
# [11] = molecular target: Rpl42, Gal4 DNA-binding domain fusion (S. cerevisiae) (UniProt P0CX27); experiment: as above
binder,measurement,setting,value
"Nap1, Gal4 activation domain fusion (full-length) (protein, UniProt P25293 1-417) MSDPIRTKPKSSMQIDNAPTPHNTPASVLNPSYLKNGNPVRAQAQEQDDKIGTINEEDILANQPLLLQSIQDRLGSLVGQDSGYVGGLPKNVKEKLLSLKTLQSELFEVEKEFQVEMFELENKFLQKYKPIWEQRSRIISGQEQPKPEQIAKGQEIVESLNETELLVDEEEKAQNDSEEEQVKGIPSFWLTALENLPIVCDTITDRDAEVLEYLQDIGLEYLTDGRPGFKLLFRFDSSANPFFTNDILCKTYFYQKELGYSGDFIYDHAEGCEISWKDNAHNVTVDLEMRKQRNKTTKQVRTIEKITPIESFFNFFDPPKIQNEDQDEELEEDLEERLALDYSIGEQLKDKLIPRAVDWFTGAALEFEFEEDEEEADEDEDEEEDDDHGLEDDDGESAEEQDDFAGRPEQAPECKQS",binding,[1],binds
same,binding,[2],binds
same,binding,[3],binds
same,binding,[4],no binding
same,binding,[5],binds
same,binding,[6],binds
same,binding,[7],binds
same,binding,[8],binds
same,binding,[9],no binding
same,binding,[10],no binding
same,binding,[11],binds
